assay: soluble on expression in E. coli; label from the status in PepcDB or PDB records

| Sequence | soluble on expression in E. coli |
| --- | --- |
| MAHHHHHHMGTLEAQTQGPGSMRLIIRPTYEDISKWAANHVAQKINEFSPTKENPFILGLPTGSSPIGMYKNLIELNKNKKISFQNVITFNMDEYIGIEENHPESYHSFMWNNFFSHIDIKKENINILNGNASNLKKECEEYEKKIKSFGGIMLFVGGIGPDGHIAFNEPGSSLTSRTRIKTLTQDTIIANSRFFEGDVNKVPKNALTVGIGTIMDSQEVLIIVNGHNKARALKHAIEKGVNHMWTISALQLHKNAIIVSDKNATYELKVGTVEYFNDIERKNFNNDLK | soluble |
| MGSCIGKEDPPPGATSPVHTSSTLGRESLPSHPRIPSIGPIAASSSGNTIDKNQNISQSANFVALFQYDARTDDDLSFKKDDILEILNDTQGDWWFARHKATGRTGYIPSNYVAREKSIESQPWYFGKMRRIDAEKCLLHTLNEHGAFLVRDSESRQHDLSLSVRENDSVKHYRIRQLDHGGYFIARRRPFATLHDLIAHYQREADGLCVNLGAPCAKSEAPQTTTFTYDDQWEVDRRSVRLIRQIGAGQFGEVWEGRWNVNVPVAVKKLKAGTADPTDFLAEAQIMKKLRHPKLLSLYAVCTRDEPILIVTELMQENLLTFLQRRGRQCQMPQLVEISAQVAAGMAYLEEMNFIHRDLAARNILINNSLSVKIADFGLARILMKENEYEARTGARFPIKWTAPEAANYNRFTTKSDVWSFGILLTEIVTFGRLPYPGMTNAEVLQQVDAGYRMPCPAGCPVTLYDIMQQCWRSDPDKRPTFETLQWKLEDLFNLDSSEYKEASINF | not soluble |
| MGSDKIHHHHHHMITIKKGLDLPIAASPAQVIHNGNTVNEVAMLGEEYVGMRPSMKVREGDLVKKGQVLFEDKKNAGVVFTAPASGTVVAINRGEKRVLQSVVIKVEGDEQITFTRYEAAQLASLSAEQVRANLIDAGLWIAFRTRPFSKVPAVDATPASIFVNAMDTNPLSADPAVIINEYKNDFEYGLTVLIRLGVKVNLVKAAGVNIPTVDGITVHEFAGKHPAGLVGTHIHFIDPVNLTKTVWHLNYQDVIAFGKLFTTGELFTDRVVALAGPQVKTPRLVRTRLGANLSQLTTGELNVGENRIISGSVLSGATASGPVDFLGRYALQVSVLLEGCEKELLGWVMPGSDKYSITRTVLGHFRKKLFNFTTAVHGGERAMVPIGAYERVMPLDIIPTLLLRDLAAGDTDSAQNLGCLELDEEDLALCTYVCPGKNNYGPMLRTALDKIEKEG | not soluble |
| MKEVAKPLQERFFIPHEIKVMGRWSTEDVEVKDPSLKPYINLEPRLLPHTHGRHAKKHFGKANVHIVERLINKVMRSGGSHYKVAGHFMRREHRSLNSKKVRAYEVVKEAFKIIEKRTGKNPIQVLVWAIENAAPREDTTSVMFGGIRYHVAVDISPLRRLDVALRNIALGASAKCYRTKMSFAEALAEEIILAANKDPKSYAYSKKLEIERIAESSR | soluble |
| MMQSYDYDSDDSQTTSDEHINSRHSSRSDTASSSSSFTPQIIFNPRPHVVKVVKSETGFGFNVKGQVSEGGQLRSLNGQLYAPLQHVSAVLRRGAADQAGLRKGDRILEVNGLNVEGSTHRKVVDLIKNGGDELTMIVISVEDPDMDRFDYGEESSMAYGHDYSENRSLPVTIPSYNTVQDSLERYTVFNIHMAGRQLGSRRYSEFVELHLALKKHFYDYCFPQLPGKWPFKLSEQQLDSRRRGLEQYLEKICTIRVIAESELVQKFLMECDPMCEVEIRLMLPDGSPITIRTRRSITSSLFFTSAQRRLKMSREGAAACSIFELLDNSFERKVSESESVHELYTHNYSSASSSCLLLRKFIFDIDRERALCKRDMVFKQFCFVQAIADLHSGKVVTSRKSYQLRAIQNEENMDELLEMARELEGYNQVTFPPSVCILRKRRQTVIMVVRFANLLLKCPEDGNSMEIDWSRIKDFRVCDEATAFSFEYIRDEVGDSEQEQTEPRKTKYVRLETGFAEYMAECFAEIQFERQAGSDWKRDQNRVAATPEPLPETIEPQPTTHKIQFEKRILEQHRDCID | not soluble |
| MNIRATRVGEQMKKELSDIISRRLKDPRIGFVTVTDVRVTGDLQQAKVYISVLGDDKQRENTLKALEKAKGFIRSEIGQRIRLRKTPEIFFEIDETIEYGSRIEQLIRQISSDDHPAKEADGEPNNG | not soluble |
| MVTVYDVPADKLIQKTAEKLKEMNIGVPEWVDFVKTGVSRERRPDQDDWWYIRCASILRKIYIYGPVGVSRLRTAYGGRKNRGHEPEHFYKGSGNIIRKALQELEKLGLVEKTPEGRVVTPKGRSFLDNIAKEVRDEIINEIPALAKY | not soluble |
| QVTLKESGPGILQPSQTLSLTCSFSGFSLSTYGMGVGWIRQPSGKGLEWLAHIWWDDVKRYNPALKSRLTISKDTSGSQVFLKIASVDTSDTATYYCARMGSDYDVWFDYWGQGTLVTVSAASTKGPSVFPLAPSSKSTSGGTAALGCLVKDYFPEPVTVSWNSGALTSGVHTFPAVLQSSGLYSLSSVVTVPSSSLGTQTYICNVNHKPSNTKVDKKVEPKSCHHHHHH | soluble |
